From publication PMC6145176 (Bioorganic & medicinal chemistry, 2017) come the findings set out here.

One may read the IC50 as the concentration that inhibits the measured activity by half. As usually defined, the IC90 is the point of the concentration-response curve where the effect stands at 90%.

This assay relates to A17 (K103N, Y181C) virus. The settings on record: A17 (K103N, Y181C) virus in MAGI-CCR5 cells.

Turning to “3-Methyl-4-(2-(6-methyl-4-(1-methyl-1H-indol-2-yl)-2-oxo-1,2,3,4-tetrahydropyrimidin-5-yl)thiazol-4-yl)benzonitrile [1at]”, the “IC50, virus A17” value was “micromolar activity”. Moreover, the IC50 (read-out: IC50, virus A17) is 6.4 ± 0.6 µM. Under “read-out: IC90, virus A17”, the IC90 was greater than 100 µM.

Turning to `Cc1ccnc2c1NC(=O)c1cccnc1N2C1CC1` [NVP, nevirapine, reference compound], the “IC50, virus A17” value is “essentially inactive”.
